From PMC12820563, “FoxP3 forms a head-to-head dimer in vivo and stabilizes its multimerization on adjacent microsatellites” come the findings set out here.

The list shows a part of the results.

The target in the experiment is T1, MBP-FoxP1dN (Mus musculus, UniProt P58462 326-579).
T1 sequence: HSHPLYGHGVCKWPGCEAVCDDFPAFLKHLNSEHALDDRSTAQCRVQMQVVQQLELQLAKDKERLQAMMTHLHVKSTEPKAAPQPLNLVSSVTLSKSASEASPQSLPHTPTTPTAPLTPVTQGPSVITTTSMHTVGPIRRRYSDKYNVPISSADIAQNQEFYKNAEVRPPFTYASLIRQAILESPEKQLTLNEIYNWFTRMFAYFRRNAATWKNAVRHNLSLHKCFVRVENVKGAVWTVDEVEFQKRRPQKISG
The experiment is described as follows: PD-seq (MBP pull-down with sequencing); 20 mM Tris-HCl pH 7.5, 100 mM NaCl, 1.5 mM MgCl2, 0.4 uM protein, 0.1 uM dsDNA library, 30 min, room temperature, amylose pull-down; high values mean tight binding. Particulars: protein: recombinant; tags: His6-MBP; chain copies: 2; dsDNA, one strand shown. The method, boiled down:
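Amylose resin was used to capture complexes formed during 30 min at room temperature in Tris pH 7.5 buffer with NaCl and MgCl2 between 0.4 µM His6-MBP-tagged mouse FoxP3 or FoxP1 fragment lacking the N-terminus, expressed in E. coli, and 0.1 µM Klenow-filled double-stranded degenerate DNA library. After three washes, the DNA was released with proteinase K, barcoded by PCR and sequenced on Illumina. Binding is pooled-replicate reads-per-million enrichment, pull-down over input.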
Regarding “GATGATTGTTCTCCCAGCTGATGAATTTCCCGAGTCGAGTAAACAAATTTTCCTAATCTTTCTGTTCAAGCGCCATCTAC”, the binding signal was 0.782 RPM ratio (pull-down/input).

With “GATGATTGTTCTCCCAGCTGATGAATTATGATCATCGAGTAAACAAATTTTCCTAATCTTTCTGTTCAAGCGCCATCTAC”, the binding signal was 1.05 RPM ratio (pull-down/input).

For the sequence “GATGATTGTTCTCCCAGCTGATGAATTGTTTTATTCGAGTAAACAAATTTTCCTAATCTTTCTGTTCAAGCGCCATCTAC”, the binding signal was 1.6 RPM ratio (pull-down/input).

In the case of “GATGATTGTTCTCCCAGCTGATGAATTACGTAATTCGAGTAAACAAATTTTCCTAATCTTTCTGTTCAAGCGCCATCTAC”, the binding signal is 1.14 RPM ratio (pull-down/input). On to “GATGATTGTTCTCCCAGCTGATGAATTCTAGACTTCGAGTAAACAAATTTTCCTAATCTTTCTGTTCAAGCGCCATCTAC”, for which the binding signal is 0.771 RPM ratio (pull-down/input). On to “GATGATTGTTCTCCCAGCTGATGAATTGTTGGGGTCGAGTAAACAAATTTTCCTAATCTTTCTGTTCAAGCGCCATCTAC”, for which the binding signal was 1.27 RPM ratio (pull-down/input). Consider “GATGATTGTTCTCCCAGCTGATGAATTTTAGGGTTCGAGTAAACAAATTTTCCTAATCTTTCTGTTCAAGCGCCATCTAC”, for which the binding signal was 0.861 RPM ratio (pull-down/input). For the sequence “GATGATTGTTCTCCCAGCTGATGAATTTGAGTAATCGAGTAAACAAATTTTCCTAATCTTTCTGTTCAAGCGCCATCTAC”, the binding signal was 1.34 RPM ratio (pull-down/input).

Regarding “GATGATTGTTCTCCCAGCTGATGAATTGGACGGATCGAGTAAACAAATTTTCCTAATCTTTCTGTTCAAGCGCCATCTAC”, the binding signal is 0.794 RPM ratio (pull-down/input). As to “GATGATTGTTCTCCCAGCTGATGAATTACATGTCTCGAGTAAACAAATTTTCCTAATCTTTCTGTTCAAGCGCCATCTAC”, the binding signal was 1.11 RPM ratio (pull-down/input).

With “GATGATTGTTCTCCCAGCTGATGAATTCGGGAAATCGAGTAAACAAATTTTCCTAATCTTTCTGTTCAAGCGCCATCTAC”, the binding signal is 0.935 RPM ratio (pull-down/input). On to “GATGATTGTTCTCCCAGCTGATGAATTAGATTCATCGAGTAAACAAATTTTCCTAATCTTTCTGTTCAAGCGCCATCTAC”, for which the binding signal is 0.949 RPM ratio (pull-down/input). For the sequence “GATGATTGTTCTCCCAGCTGATGAATTGATGGGTTCGAGTAAACAAATTTTCCTAATCTTTCTGTTCAAGCGCCATCTAC”, the binding signal is 0.958 RPM ratio (pull-down/input). As to “GATGATTGTTCTCCCAGCTGATGAATTTTACGTATCGAGTAAACAAATTTTCCTAATCTTTCTGTTCAAGCGCCATCTAC”, the binding signal was 0.962 RPM ratio (pull-down/input). For the sequence “GATGATTGTTCTCCCAGCTGATGAATTTTTCATATCGAGTAAACAAATTTTCCTAATCTTTCTGTTCAAGCGCCATCTAC”, the binding signal is 0.989 RPM ratio (pull-down/input). To “GATGATTGTTCTCCCAGCTGATGAATTTGTTCAATCGAGTAAACAAATTTTCCTAATCTTTCTGTTCAAGCGCCATCTAC” belongs 1.17 RPM ratio (pull-down/input). Consider “GATGATTGTTCTCCCAGCTGATGAATTACCCCTATCGAGTAAACAAATTTTCCTAATCTTTCTGTTCAAGCGCCATCTAC”, for which the binding signal was 0.969 RPM ratio (pull-down/input).

As to “GATGATTGTTCTCCCAGCTGATGAATTGTAACCTTCGAGTAAACAAATTTTCCTAATCTTTCTGTTCAAGCGCCATCTAC”, the binding signal is 1.01 RPM ratio (pull-down/input). For the sequence “GATGATTGTTCTCCCAGCTGATGAATTATTGTCGTCGAGTAAACAAATTTTCCTAATCTTTCTGTTCAAGCGCCATCTAC”, the binding signal was 1.56 RPM ratio (pull-down/input). In the case of “GATGATTGTTCTCCCAGCTGATGAATTTGCGGGCTCGAGTAAACAAATTTTCCTAATCTTTCTGTTCAAGCGCCATCTAC”, the binding signal was 0.839 RPM ratio (pull-down/input). With “GATGATTGTTCTCCCAGCTGATGAATTGGCATGTTCGAGTAAACAAATTTTCCTAATCTTTCTGTTCAAGCGCCATCTAC”, the binding signal is 0.944 RPM ratio (pull-down/input). Consider “GATGATTGTTCTCCCAGCTGATGAATTGACACTCTCGAGTAAACAAATTTTCCTAATCTTTCTGTTCAAGCGCCATCTAC”, for which the binding signal was 1.16 RPM ratio (pull-down/input). Take “GATGATTGTTCTCCCAGCTGATGAATTAGATTCGTCGAGTAAACAAATTTTCCTAATCTTTCTGTTCAAGCGCCATCTAC”: the binding signal is 0.892 RPM ratio (pull-down/input). With “GATGATTGTTCTCCCAGCTGATGAATTAATATAATCGAGTAAACAAATTTTCCTAATCTTTCTGTTCAAGCGCCATCTAC”, the binding signal was 1.26 RPM ratio (pull-down/input).

For the sequence “GATGATTGTTCTCCCAGCTGATGAATTGATTTCGTCGAGTAAACAAATTTTCCTAATCTTTCTGTTCAAGCGCCATCTAC”, the binding signal was 1.11 RPM ratio (pull-down/input). Turning to “GATGATTGTTCTCCCAGCTGATGAATTCCCCTGCTCGAGTAAACAAATTTTCCTAATCTTTCTGTTCAAGCGCCATCTAC”, the binding signal is 0.784 RPM ratio (pull-down/input). Turning to “GATGATTGTTCTCCCAGCTGATGAATTATCACCTTCGAGTAAACAAATTTTCCTAATCTTTCTGTTCAAGCGCCATCTAC”, the binding signal was 1.03 RPM ratio (pull-down/input). To “GATGATTGTTCTCCCAGCTGATGAATTCTTTACATCGAGTAAACAAATTTTCCTAATCTTTCTGTTCAAGCGCCATCTAC” belongs 1.07 RPM ratio (pull-down/input). As to “GATGATTGTTCTCCCAGCTGATGAATTACCCTATTCGAGTAAACAAATTTTCCTAATCTTTCTGTTCAAGCGCCATCTAC”, the binding signal was 1 RPM ratio (pull-down/input). Take “GATGATTGTTCTCCCAGCTGATGAATTCCGGGAATCGAGTAAACAAATTTTCCTAATCTTTCTGTTCAAGCGCCATCTAC”: the binding signal was 0.923 RPM ratio (pull-down/input).

Regarding “GATGATTGTTCTCCCAGCTGATGAATTCGTCGCGTCGAGTAAACAAATTTTCCTAATCTTTCTGTTCAAGCGCCATCTAC”, the binding signal was 0.904 RPM ratio (pull-down/input). To “GATGATTGTTCTCCCAGCTGATGAATTGCCCTGCTCGAGTAAACAAATTTTCCTAATCTTTCTGTTCAAGCGCCATCTAC” belongs 0.823 RPM ratio (pull-down/input).
